Laboratory results from the supplement of paper PMC8728848.
The other results are listed elsewhere or left out.

Assays:
Assay in all cases: glycan array binding signal (z-score within array); higher = stronger binding
Conditions in all cases: glycan notation: IUPAC condensed, linker removed
[1] = molecular target: Neu5Ac(a2-6)Gal(b1-4)GlcNAc(b1-2)Man(a1-3)[Neu5Ac(a2-3)Gal(b1-4)GlcNAc(b1-2)Man(a1-6)]Man(b1-4)GlcNAc(b1-4)GlcNAc
In short: (§1)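 Arrays were curated from the Consortium for Functional Glycomics database, 3228 in total, and kept only where the protein sequence was available. Binding is expressed as a within-array Z-score. This score was averaged across arrays of the same protein sequence at different concentrations or buffers and across linkers, and negative values can be read as non-binding.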

[2] = molecular target: Neu5Ac(a2-6)Gal(b1-4)GlcNAc(b1-2)Man(a1-3)[Neu5Ac(a2-6)Gal(b1-4)GlcNAc(b1-2)Man(a1-6)]Man(b1-4)GlcNAc(b1-4)GlcNAc
In short: as §1

[3] = molecular target: Neu5Ac(a2-6)Gal(b1-4)GlcNAc(b1-2)Man(a1-3)[Neu5Ac(a2-6)Gal(b1-4)GlcNAc(b1-2)Man(a1-6)]Man(b1-4)GlcNAc(b1-4)[Fuc(a1-6)]GlcNAc
In short: as §1

[4] = molecular target: Neu5Ac(a2-6)Gal(b1-4)GlcNAc(b1-2)Man(a1-6)Man(b1-4)GlcNAc(b1-4)GlcNAc
In short: as §1

[5] = molecular target: Neu5Ac(a2-6)Gal(b1-4)GlcNAc(b1-2)Man(a1-6)[Gal(b1-4)GlcNAc(b1-2)Man(a1-3)]Man(b1-4)GlcNAc(b1-4)GlcNAc
In short: as §1

[6] = molecular target: Neu5Ac(a2-6)Gal(b1-4)GlcNAc(b1-2)Man(a1-6)[GlcNAc(b1-2)Man(a1-3)]Man(b1-4)GlcNAc(b1-4)GlcNAc
In short: as §1

[7] = molecular target: Neu5Ac(a2-6)Gal(b1-4)GlcNAc(b1-2)Man(a1-6)[Man(a1-3)]Man(b1-4)GlcNAc(b1-4)GlcNAc
In short: as §1

[8] = molecular target: Neu5Ac(a2-6)Gal(b1-4)GlcNAc(b1-2)[Neu5Ac(a2-6)Gal(b1-4)GlcNAc(b1-4)]Man(a1-3)[GlcNAc(b1-4)][Neu5Ac(a2-6)Gal(b1-4)GlcNAc(b1-2)[Neu5Ac(a2-6)Gal(b1-4)GlcNAc(b1-6)]Man(a1-6)]Man(b1-4)GlcNAc(b1-4)GlcNAc
In short: as §1

[9] = molecular target: Neu5Ac(a2-6)Gal(b1-4)GlcNAc(b1-2)[Neu5Ac(a2-6)Gal(b1-4)GlcNAc(b1-4)]Man(a1-3)[GlcNAc(b1-4)][Neu5Ac(a2-6)Gal(b1-4)GlcNAc(b1-4)Man(a1-6)]Man(b1-4)GlcNAc(b1-4)GlcNAc
In short: as §1

[10] = molecular target: Neu5Ac(a2-6)Gal(b1-4)GlcNAc(b1-2)[Neu5Ac(a2-6)Gal(b1-4)GlcNAc(b1-6)]Man(a1-6)[Neu5Ac(a2-6)Gal(b1-4)GlcNAc(b1-2)Man(a1-3)][GlcNAc(b1-4)]Man(b1-4)GlcNAc(b1-4)GlcNAc
In short: as §1

[11] = molecular target: Neu5Ac(a2-6)Gal(b1-4)GlcNAc(b1-3)Gal(b1-3)GlcNAc
In short: as §1

[12] = molecular target: Neu5Ac(a2-6)Gal(b1-4)GlcNAc(b1-3)Gal(b1-4)GlcNAc
In short: as §1

[13] = molecular target: Neu5Ac(a2-6)Gal(b1-4)GlcNAc(b1-3)Gal(b1-4)GlcNAc(b1-2)Man(a1-3)[Neu5Ac(a2-6)Gal(b1-4)GlcNAc(b1-3)Gal(b1-4)GlcNAc(b1-2)Man(a1-6)]GalNAc
In short: as §1

[14] = molecular target: Neu5Ac(a2-6)Gal(b1-4)GlcNAc(b1-3)Gal(b1-4)GlcNAc(b1-3)Gal(b1-4)GlcNAc
In short: as §1

[15] = molecular target: Neu5Ac(a2-6)Gal(b1-4)GlcNAc(b1-3)Gal(b1-4)GlcNAc(b1-3)Gal(b1-4)GlcNAc(b1-2)Man(a1-3)[Neu5Ac(a2-6)Gal(b1-4)GlcNAc(b1-3)Gal(b1-4)GlcNAc(b1-3)Gal(b1-4)GlcNAc(b1-2)Man(a1-6)]GalNAc
In short: as §1

[16] = molecular target: Neu5Ac(a2-6)Gal(b1-4)GlcNAc(b1-3)Gal(b1-4)GlcNAc(b1-3)GalNAc
In short: as §1

[17] = molecular target: Neu5Ac(a2-6)Gal(b1-4)GlcNAc(b1-3)Gal(b1-4)GlcNAc(b1-3)[Neu5Ac(a2-6)Gal(b1-4)GlcNAc(b1-3)Gal(b1-4)GlcNAc(b1-6)]GalNAc
In short: as §1

[18] = molecular target: Neu5Ac(a2-6)Gal(b1-4)GlcNAc(b1-3)Gal(b1-4)GlcNAc(b1-6)[Gal(b1-3)]GalNAc
In short: as §1

[19] = molecular target: Neu5Ac(a2-6)Gal(b1-4)GlcNAc(b1-3)Gal(b1-4)[Fuc(a1-3)]GlcNAc(b1-3)Gal(b1-4)[Fuc(a1-3)]GlcNAc
In short: as §1

[20] = molecular target: Neu5Ac(a2-6)Gal(b1-4)GlcNAc(b1-3)GalNAc
In short: as §1

[21] = molecular target: Neu5Ac(a2-6)Gal(b1-4)GlcNAc(b1-3)[Neu5Ac(a2-6)Gal(b1-4)GlcNAc(b1-6)]GalNAc
In short: as §1

[22] = molecular target: Neu5Ac(a2-6)Gal(b1-4)GlcNAc(b1-6)GalNAc
In short: as §1

[23] = molecular target: Neu5Ac(a2-6)Gal(b1-4)GlcNAc(b1-6)[Gal(b1-3)GlcNAc(b1-3)]Gal(b1-4)Glc
In short: as §1

[24] = molecular target: Neu5Ac(a2-6)Gal(b1-4)GlcNAc(b1-6)[Gal(b1-3)]GalNAc
In short: as §1

[25] = molecular target: Neu5Ac(a2-6)Gal(b1-4)GlcNAc6S
In short: as §1

Neu5Ac(a2-6)GalNAc = molecular target: Neu5Ac(a2-6)GalNAc
In short: as §1

[26] = molecular target: Neu5Ac(a2-6)GalNAc(b1-4)GlcNAc
In short: as §1

[27] = molecular target: Neu5Ac(a2-6)GalNAc(b1-4)GlcNAc6S
In short: as §1

[28] = molecular target: Neu5Ac(a2-6)GlcNAc(b1-4)GlcNAc
In short: as §1

[29] = molecular target: Neu5Ac(a2-6)GlcNAc(b1-4)GlcNAc(b1-4)GlcNAc
In short: as §1

B1: ClecSol-Fc (Cryptosporidium parvum) (protein)
chain: CPEGWISNGEKTRCFKLVTFDRPRTFSHGFKACNDLGGTEVETRRRNGSKETNEYPVTLASVYKLSDEEAIRRTLVEQGDIHKTANGCFVGLRKYAFFRYPPGWYWIDSGSPVSVRDSEINWTSSYNASWLLRFKFPFEKCGFFDIGGLGRRPCWLIDSELSCAVCGTVAYDSGGLNPNKYSELIKQTDEIISKEPKLDLPGYNNLNCTDAWENNLSVGLCQNVSNILDSAWSSYQSSLNFPSINFNWKEDSTNEGGDQVYHNSYLDLPRYKQKKTFYWDQDPGTIPALSDEMKLIGLSAQPTYHPLDRSSSGSFESDSTESGRANEERNDTLEEMIYKQSSDSIEDILVPVTKPIFSDYSSIGRNSGVEEVYSSNVSTISSKGVVFPNTTTSSDNDFTKNNPANSSKHTSTSTTTNTTTTTTRTTTTTTTTTTTTTTTTTTTTETTTTKKSTTATKNTTTT
Q: B1 was tested. Which “glycan array binding signal (z-score)” value [1] did it give?
A: The value was -0.203.

Q: What about the “glycan array binding signal (z-score)” value [2] of the same binder?
A: Its value is -0.172.

Q: What about the “glycan array binding signal (z-score)” value [3] of the same binder?
A: The value was -0.136.

Q: What about the “glycan array binding signal (z-score)” value [4] of the same binder?
A: The value was -0.1.

Q: And the “glycan array binding signal (z-score)” value [5]?
A: The value was -0.095.

Q: And the “glycan array binding signal (z-score)” value [6]?
A: The value was -0.302.

Q: And the “glycan array binding signal (z-score)” value [7]?
A: The value was -0.177.

Q: And the “glycan array binding signal (z-score)” value [8]?
A: Its value is -0.129.

Q: And the “glycan array binding signal (z-score)” value [9]?
A: The value was -0.067.

Q: What about the “glycan array binding signal (z-score)” value [10] of the same binder?
A: Its value is -0.083.

Q: And the “glycan array binding signal (z-score)” value [11]?
A: Its value is -0.002.

Q: And the “glycan array binding signal (z-score)” value [12]?
A: Its value is 0.051.

Q: What about the “glycan array binding signal (z-score)” value [13] of the same binder?
A: Its value is -0.02.

Q: What about the “glycan array binding signal (z-score)” value [14] of the same binder?
A: The value was -0.218.

Q: And the “glycan array binding signal (z-score)” value [15]?
A: Its value is -0.139.

Q: What about the “glycan array binding signal (z-score)” value [16] of the same binder?
A: Its value is -0.226.

Q: And the “glycan array binding signal (z-score)” value [17]?
A: The value was -0.146.

Q: What about the “glycan array binding signal (z-score)” value [18] of the same binder?
A: Its value is -0.191.

Q: What about the “glycan array binding signal (z-score)” value [19] of the same binder?
A: Its value is -0.036.

Q: What about the “glycan array binding signal (z-score)” value [20] of the same binder?
A: Its value is -0.234.

Q: What about the “glycan array binding signal (z-score)” value [21] of the same binder?
A: The value was -0.216.

Q: And the “glycan array binding signal (z-score)” value [22]?
A: The value was -0.052.

Q: And the “glycan array binding signal (z-score)” value [23]?
A: Its value is 0.096.

Q: And the “glycan array binding signal (z-score)” value [24]?
A: Its value is -0.084.

Q: What about the “glycan array binding signal (z-score)” value [25] of the same binder?
A: Its value is -0.175.

Q: And the “glycan array binding signal (z-score)” value (Neu5Ac(a2-6)GalNAc)?
A: The value was -0.056.

Q: What about the “glycan array binding signal (z-score)” value [26] of the same binder?
A: The value was -0.235.

Q: And the “glycan array binding signal (z-score)” value [27]?
A: The value was -0.03.

Q: What about the “glycan array binding signal (z-score)” value [28] of the same binder?
A: Its value is 0.038.

Q: What about the “glycan array binding signal (z-score)” value [29] of the same binder?
A: The value was -0.056.
